The record followed here is PubChem BioAssay (NCI).

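Dose response: 5 concentrations. Exposure: 48 h. Format: 96-well plates. Endpoint: linear interpolation; highest concentration if not reached. Here, GI50 denotes the concentration required for 50% inhibition of growth. TGI denotes the concentration required for complete inhibition of growth.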 Bounds are passed on as bounds.

This assay has as its system NCI-H322M lung. In words: NCI tumour cell line growth inhibition, 48 h.
As to `COC(=O)CCC(C)[C@H]1CCC2C3CC[C@@H]4CC5(CC[C@]4(C)C3C[C@H](OC(C)=O)[C@@]21C)OOC1(CCCCC1)OO5` (some centres undefined), the TGI was above 100 µM.

Take `C/C(=N\NC(=S)NC(C)(C)C)c1nc2ncccc2[nH]1`: the TGI was above 100 µM.

Turning to `CC(=O)O[C@H]1CC[C@@H](OC(C)=O)[C@H]2[C@H](O)[C@H](O)[C@@H]1n1c(=O)n(-c3ccccc3)c(=O)n12`, the TGI was above 100 µM.

For the molecule `O=C1Nc2ccc(-c3cccnc3)cc2/C1=C/c1cc(Br)c(O)c(Br)c1`, the GI50 is 7.1 µM and the TGI is above 25 µM.

Consider `COCOC1CCCC[C@@]1(OCCOCCO[C@@]1(c2ccccc2)CCCC[C@H]1OCOC)c1ccccc1` (some centres undefined), for which the TGI is above 100 µM.

Turning to `COCc1cc2c(s1)C(=O)C1=C(C2=O)C2(C=C(Br)C(=O)C(Br)=C2)CCN1`, the TGI stood at 25.4 µM.

In turn, `CCCCCCCCCC1CC(=O)OC23CCCC(=O)C12O3` (centres undefined) registered a TGI above 100 µM.

For `O=C(Nc1ccc(-n2cc(-c3ccncc3)c(-c3ccc(O)c(Cl)c3)n2)cc1)Nc1cc(C(F)(F)F)cc(C(F)(F)F)c1`, the GI50 was 2.96 µM and the TGI turned out to be 11.5 µM.

As for `CCN(CC)CCCC(Nc1c2ccc(Cl)cc2nc2ccc(OC)cc12)c1ccc(Cl)cc1` (centres undefined), the GI50 was 1.73 µM and the TGI stood at 3.28 µM.

In turn, `CCCCCCCCCCCCCCCCNc1nc(=O)n(C2OC(C)C(O)C2O)cc1F` (centres undefined) displayed a TGI of 32.1 µM.

Regarding `CCN1C(=O)N(CC)C2C1NC(=S)N2/N=C/C=C/c1ccccc1` (centres undefined), the GI50 was 1.16 µM and the TGI is above 100 µM.

Molecule `O=C([O-])c1ccc([I+]c2ccccc2)cc1` gave a TGI above 100 µM.

Regarding `NCCCNc1nc2ccccc2c2c(=O)c3cc(Cl)ccc3sc12`, the GI50 is 1.49 µM and the TGI worked out at 2.86 µM.

Consider `Cc1ccc(C(=O)Nc2ccc(Oc3cc4cnn(C)c4cc3-c3cn[nH]c3)c(F)c2)c(=O)n1-c1ccc(F)cc1`, for which the GI50 is above 46.6 µM and the TGI was above 100 µM.

As for `COC(=O)[C@]12CC[C@@H](C)[C@H](C)[C@@H]1C1=CC[C@@H]3[C@@]4(C)C(C=O)=C[C@@](C)(COS(C)(=O)=O)C4=CC[C@@]3(C)[C@]1(C)CC2`, the GI50 was 0.515 µM and the TGI was determined as 3.21 µM.

Turning to `COc1cc2c(cc1O)NC(=O)[C@@H]1C[C@@H](O)CN1C2=O`, the TGI is above 100 µM.

For the molecule `CC(=O)Nc1cccc(C#Cc2cncnc2Nc2ccc(OCc3cccc(F)c3)c(Cl)c2)c1`, the GI50 was 5.88 µM and the TGI was above 25 µM.

On to `O=S(Nc1ccccc1)c1ccc(Cl)cc1` (centres undefined), for which the TGI was above 100 µM.

In turn, `CCNC(=S)N/N=C(/C)c1cccc(/C(C)=N\NC(=S)NCC)n1` came in with a TGI above 73 µM.

As to `C[n+]1c2ccccc2n2c3ccccc3c(NCCCn3ccnc3)c(C#N)c21`, the TGI was found to be 17.8 µM.

Take `CO[C@H]1C(=O)[C@]2(C)[C@@H](OC)C[C@H]3OC[C@@]3(OC(C)=O)[C@H]2[C@H](OC(=O)c2ccccc2)[C@]2(O)C[C@H](OC(=O)[C@H](O)[C@@H](NC(=O)OC(C)(C)C)c3ccccc3)C(C)=C1C2(C)C`: the GI50 is below 0.01 µM and the TGI is above 100 µM.

On to `CCCC(O)[C@@]1(CC)CC(C)C(O)(C2(C)C[C@H](C)[C@@H](C(CC)C(=O)C(C)[C@@H](O)[C@H](C)C3OC(O)(C(CC)C(=O)O)[C@@H](C)C(O)C3CC)O2)O1` (some centres undefined), for which the TGI stood at 6.9 µM.

`COS(=O)c1cc(Cl)cc(Cl)c1OC(=O)CSSCC(=O)Oc1c(Cl)cc(Cl)cc1S(=O)OC` (centres undefined): the TGI is 42.8 µM.

As for `O=C(Nc1ccccc1C(=O)NC(=O)c1ccccc1NC(=O)c1ccccc1)c1ccccc1`, the TGI was 27.1 µM.

Turning to `COc1ccc2oc(=O)c(-c3cc4c(c(C)n3)c(=O)oc3ccc(OC)cc34)cc2c1`, the TGI was above 100 µM.

Consider `OCCNc1nc2ccccc2c2[nH]c3ccccc3c12`, for which the GI50 is 0.501 µM and the TGI came to 3.86 µM.

As to `C[n+]1cn(CC(=O)c2ccccc2)c(C(N)=O)c1N`, the TGI was above 100 µM.

Take `CN(C)CCNC(=O)Nc1ccc(N(C)c2ccnc(Nc3ccc(CS(C)(=O)=O)cc3)n2)cc1`: the GI50 is above 25 µM and the TGI is above 25 µM.

Molecule `Cn1c2c(c3c(=O)[nH]ncc31)Cc1ccccc1-2` had a TGI above 100 µM.

`C/C(=C/CCC(C)[C@@H]1CC[C@]2(C)C3=C(CC[C@@]12C)[C@@]1(C)CCC(=O)C(C)(C)[C@@H]1CC3)C(=O)O` (some centres undefined): the GI50 was 2.08 µM and the TGI came to 3.85 µM.

`CCOC(=O)C1C(c2ccc(Br)cc2)N(Cc2ccccc2)C(c2ccc(Br)cc2)C(C(=O)OC)S1(=O)=O` (centres undefined) showed a TGI above 100 µM.

The molecule `CNC(=O)OCc1nc(SSc2nc(COC(=O)NC)c(COC(=O)NC)n2C)n(C)c1COC(=O)NC` yielded a TGI above 100 µM.

On to `CCc1ccc(Oc2c(-c3ccc(OCc4ccc(Cl)cc4)cc3O)nn(C)c2C(F)(F)F)cc1`, for which the GI50 was 1.43 µM and the TGI was 4.17 µM.

In the case of `C/C(CCN(C)C)=N/O`, the TGI turned out to be 79.9 µM.

`O=C(CI)NC(=O)NC(=O)NCc1ccccc1`: the GI50 was 15.1 µM and the TGI turned out to be 29.4 µM.

As to `Nc1ncnc2c1c(-c1ccc(Oc3ccccc3)cc1)nn2CC1SSCC1O` (centres undefined), the GI50 was 3.21 µM and the TGI worked out at 12.2 µM.

`CC1CC(c2ccccc2)=Nc2ccccc2S1` (centres undefined) showed a TGI above 100 µM.

For the molecule `COc1ccc(N(CC(=O)O)N=O)cc1`, the TGI was above 100 µM.

For `O=c1[nH]c2ccccc2cc1-c1nnc(Cc2ccccc2)o1`, the GI50 was 15.8 µM and the TGI was determined as 34.4 µM.

In the case of `O=C(Nc1ccc(-n2cc(-c3ccncc3)c(-c3ccc(Cl)c(O)c3)n2)cc1)c1cc(C(F)(F)F)cc(C(F)(F)F)c1`, the GI50 was 17.3 µM and the TGI was above 100 µM.

With `O=c1[nH]nc(Nc2ccc(Cl)cc2)c2nnn(C3CCCCC3)c12`, the TGI was above 100 µM.

Molecule `CCC(Oc1ccc(OC)c2c1C(=O)CCC2)C(=O)O` (centres undefined) had a TGI above 100 µM.

`[N-]=[N+]=CC(=O)C1CCN(c2ccccc2)C1=O` (centres undefined) registered a TGI above 10 µM.

In turn, `N#CC(C(=O)Nc1ccccc1)C1=C(Cl)C(=O)c2ccccc2C1=O` (centres undefined) returned a TGI of 27.9 µM.

With `CC[C@]1(c2ccc3c(c2)OCO3)C=[N+]([O-])O[C@H](OC2CCCC2(c2ccccc2)c2ccccc2)[C@@H]1OC(C)=O` (some centres undefined), the TGI came to 8.68 µM.

`CC(C)N(C(=O)C12C3C4C1C1C4(C#N)C3C12C(=O)O)C(C)C` (centres undefined): the TGI was above 100 µM.

With `C[C@]12CCc3nc(Nc4ccc(O)cc4)sc3C1=CC[C@@H]1[C@@H]2CC[C@]2(C)/C(=N/NC(N)=S)CC[C@@H]12`, the GI50 was 1.84 µM and the TGI came out at 4.09 µM.

In the case of `Nc1nc(-c2ccccc2)c(CC(=O)O)s1`, the TGI is above 100 µM.

`O=C1C=CC2(O)OCC3C=C4O[C@@H]5OC6(CCCCC6)O[C@@H]5C4[C@@H]2[C@@H]13` (some centres undefined) gave a TGI above 100 µM.

As for `CCOC(=O)CNC(=O)c1[nH]cnc1/N=N/N(C)C`, the TGI was above 100 µM.

The molecule `COc1cccc2c(=O)oc(-c3ccccc3C)nc12` showed a TGI above 100 µM.

Take `COc1cc(C=O)cc(C=Nc2ccc(Br)cc2)c1O`: the TGI was above 100 µM.

On to `CN(C)C1C(=O)C(C(N)=O)=C(O)C2(O)C(=O)C3=C(O)c4c(O)cccc4C(C)(O)C3CC12.[Cl][Sb]([Cl])[Cl]` (centres undefined), for which the GI50 was 3.38 µM and the TGI came to 11.7 µM.

In the case of `CCOC(=O)c1cc(C(=O)c2ccc(OC)c(OC)c2)n2c1ccc1ccc3cccnc3c12`, the GI50 was 6.09 µM and the TGI was above 100 µM.

For `O=C(/C=C\c1ccccc1)Oc1ccc(/C=C2\CCC/C(=C\c3ccc(OC(=O)/C=C\c4ccccc4)cc3)C2=O)cc1`, the TGI was above 100 µM.

Consider `O=C1/C(=C\c2cccc(Oc3ccccc3)c2)SC(c2ccccc2)N1c1cc(Cl)ccc1Cl` (centres undefined), for which the TGI is above 100 µM.

Molecule `Cc1ccc(S(=O)(=O)NC(=O)Nc2ccc(C(=O)O)cc2)cc1` showed a TGI above 100 µM.

For the molecule `Cc1ccc(-n2nc(C(OC3OC(CO)C(O)C(O)C3O)C(O)CO)c3nc4cc(C)c(C)cc4nc32)cc1` (centres undefined), the TGI is above 100 µM.

For the molecule `O=C(/C=C/c1ccccc1)c1cc(CN2CCOCC2)c(O)c(CN2CCOCC2)c1`, the TGI was found to be 48.8 µM.

Molecule `Cc1cc(OC2OC(CO)C(O)C(O)C2O)ccc1O` (centres undefined) showed a TGI above 100 µM.

Take `Cc1ccc2ccc3c4ccccc4ccc3c2c1`: the GI50 is 46.9 µM and the TGI was above 100 µM.

Turning to `N#Cc1cc(F)cc(Oc2ccc(S(=O)(=O)C(F)F)c3c2CC(F)(F)[C@H]3O)c1`, the GI50 was 60.6 µM and the TGI was above 100 µM.

As to `COc1cccc(-c2cc(=O)c3cc(N4CCN(C)CC4)ccc3[nH]2)c1`, the GI50 is 2.61 µM and the TGI was 28 µM.

In the case of `O=C(CCCCN1CCN(CCCCC(=O)Nc2ccccc2C#C/C=C\C#Cc2ccccc2C(F)(F)F)CC1)Nc1ccccc1C#C/C=C\C#Cc1ccccc1C(F)(F)F`, the GI50 was 27.3 µM and the TGI was above 50 µM.

For `C/C(=N\NC(=S)N1CCC1)c1ccccn1`, the GI50 is 0.00879 µM and the TGI was above 70.9 µM.

`BrC1(c2ccccc2)C[n+]2c(-c3ccccc3)cc(-c3ccccc3)cc2-c2ccccc21` (centres undefined): the TGI came out at 14.6 µM.

Molecule `CCOC1c2nc3ccccc3nc2-c2ccccc2N1C(C)=O` (centres undefined) came in with a TGI above 100 µM.

`Nc1c(C(=O)O)c2ccc([N+](=O)[O-])cc2c(=O)n1-c1nc2ccccc2s1` returned a TGI above 100 µM.

On to `CN(C)c1cccc2c(S(=O)(=O)NCCN)cccc12`, for which the TGI was above 100 µM.

On to `COc1c(OC2OC(CO)C(O)C(O)C2O)cc2c(c1OC)-c1ccc(OC)c(=O)cc1C(NC(C)=O)CC2` (centres undefined), for which the TGI is above 100 µM.

As for `Cc1nc(C(=Nc2ccc(Br)cc2)Nn2cnnc2)no1`, the TGI is above 100 µM.

In turn, `CN1CCCc2nc3ccccc3n2C1` displayed a TGI above 100 µM.

On to `Cc1ccc(S(=O)(=O)N/N=c2/sc3ccccc3n2C)cc1`, for which the TGI is above 100 µM.

As for `COC(=O)[C@H](C)NC(=O)[C@H](NS(=O)(=O)c1nc2ccccc2s1)c1ccccc1`, the TGI came to 56.4 µM.

Molecule `N#Cc1c(-c2ccccc2)c(-c2ccccc2)cc2c(=O)c3ccc(Cl)cc3[nH]c12` displayed a TGI above 100 µM.

For `Cc1cc(NC(=O)NC(=O)c2ccccc2NC(=O)CN(C)C)ccc1Oc1ncc(Br)cn1`, the TGI was above 100 µM.

As for `CC(C)OC(=O)C(NC(=O)C(CC(=O)OCc1ccccc1)NC(=O)OCc1ccccc1)NC(=O)C1C(C)(C)CCC1(C)C` (centres undefined), the TGI was above 67.7 µM.

In turn, `CCCCCCCCCCCC1=C(O)C(=O)C(CC2=C(O)C(=O)C(CCCCCCCCCCC)=C(O)C2=O)=C(O)C1=O` returned a TGI above 100 µM.

`O=C(O)[C@H]1NC[C@H]2C(Br)=NO[C@@H]12` registered a TGI above 100 µM.
